From the antibiotic and cytotoxicity screens of Wong et al. (2023)
The other results are listed elsewhere or left out.

Assays:
HSkMC = human skeletal muscle cells; test: cytotoxicity call (relative viability < 0.9); details: 10 µM
HepG2 = test: cytotoxicity call (relative viability < 0.9); details: 10 µM
S. aureus RN4220 = test: growth inhibition call (relative growth <= 0.2); details: 50 µM

Compound	cytotoxicity call (HSkMC)	cytotoxicity call (HepG2)	growth inhibition call (S. aureus RN4220)
C[C@H]1CN([C@@H](C)CO)C(=O)c2cc(NC(=O)Nc3ccc4c(c3)OCO4)ccc2O[C@H]1CN(C)S(=O)(=O)c1cn(C)cn1	inactive	inactive	inactive
CC1=CC2=NC(=O)C[C@](C)(C(=O)O)N2C=C1	inactive	inactive	inactive
C[C@H](CO)N1C[C@H](C)[C@@H](CN(C)Cc2ccc(C(=O)O)cc2)OCCCC[C@H](C)Oc2ccc(NC(=O)NC3CCCCC3)cc2C1=O	inactive	inactive	inactive
C[C@H](CO)N1C[C@H](C)[C@H](CN(C)S(=O)(=O)c2ccc(-c3ccccc3)cc2)OCc2cn(nn2)CCCC1=O	inactive	inactive	inactive
Cl.OC(CCN1CCCC1)(c1ccccc1)C1CCCCC1 (stereo unspecified)	inactive	active	inactive
C[C@@H]1CN([C@@H](C)CO)C(=O)c2cccc(NC(=O)Nc3ccc(F)cc3)c2O[C@@H]1CN(C)Cc1ccc(C(F)(F)F)cc1	inactive	inactive	inactive
O=C(N[C@H](NC(=S)Nc1ccc(F)c([N+](=O)[O-])c1)C(Cl)(Cl)Cl)C(c1ccccc1)c1ccccc1	active	active	inactive
C[C@@H]1CN([C@H](C)CO)C(=O)c2cccc(NC(=O)c3ccno3)c2O[C@H]1CN(C)S(=O)(=O)c1cccs1	inactive	inactive	inactive
C[C@H]1CN([C@@H](C)CO)C(=O)c2c(c3ccccc3n2C)-c2ccccc2CO[C@@H]1CN(C)C(=O)CCC(F)(F)F	inactive	inactive	inactive
C[C@@H]1CN([C@H](C)CO)C(=O)c2cc(NC(=O)Nc3ccc(C(F)(F)F)cc3)ccc2O[C@@H]1CN(C)C(=O)Nc1ccc(C(F)(F)F)cc1	inactive	inactive	inactive
C[C@@H]1CN([C@@H](C)CO)C(=O)c2cccc(NC(=O)C3CCOCC3)c2O[C@H]1CN(C)S(=O)(=O)c1ccc(Cl)cc1	inactive	inactive	inactive
C[C@@H]1CN([C@@H](C)CO)C(=O)c2cc(NC(=O)Nc3ccc4c(c3)OCO4)ccc2O[C@@H]1CN(C)Cc1ccc(Cl)c(Cl)c1	inactive	active	inactive
COc1ccc(S(=O)(=O)Nc2ccc3c(c2)C(=O)N([C@H](C)CO)C[C@H](C)[C@@H](CN(C)Cc2ccccc2)OCCCC[C@@H](C)O3)cc1	inactive	inactive	inactive
S=C1NCN(CCc2ccccc2)CN1	inactive	inactive	inactive
Cc1noc(C)c1S(=O)(=O)Nc1ccc2c(c1)CC(=O)N([C@H](C)CO)C[C@@H](C)[C@@H](CN(C)C(=O)NC(C)C)O2	inactive	inactive	inactive
C[C@@H]1CN([C@@H](C)CO)S(=O)(=O)c2ccc(Br)cc2O[C@H]1CN(C)C(=O)C1CCOCC1	inactive	inactive	inactive
CC(C)NC(=O)N(C)C[C@@H]1OCCCC[C@H](C)Oc2ccc(NC(=O)Nc3ccc(F)cc3)cc2C(=O)N([C@@H](C)CO)C[C@@H]1C	inactive	inactive	inactive
